Each structure is given as a SMILES string. Values after ≈ are worked out from the molar mass of the structure shown.

The values that follow come from patent US20250313546A1, “NUCLEIC ACID BINDERS” (UNIVERSITY OF STRATHCLYDE, priority 2022, published 2025).

Test [1] relates to T. b. brucei Lister S427 (a drug-sensitive wild type). Kind of test: Resazurin-based (Alamar blue) drug sensitivity assay. The following applies: for IC50: Trypanosoma brucei, read-out: IC50 T.b. brucei; for T.b. brucei Selectivity Indices (SI, IC50 (μM)/IC50 (μM)) Group / T.b. brucei Selectivity Index (SI, IC50 (μM)/IC50 (μM)), numeric value: cytotoxicity against HEK293 cells vs T.b. brucei. (Alamar Blue is a resazurin reagent that responds to reducing activity.)

For test [2], the system named is T. b. brucei B48 (a strain resistant to diamidines and melaminophenyl arsenicals). The test is described as above. The following applies: Trypanosoma brucei, read-out: IC50 T.b. brucei B48. As to the method:
A detailed description of the procedure for evaluating activity against trypanosomes, using an Alamar Blue (resazurin) assay, is described below.
The bloodstream form (BSF) T. b. brucei s427 (see De Koning, H. P. et al., Mol. Biochem. Parasitol. 2000, 106, 181-185), T. evansi AntTat 3/3 (see Dean, S. et al., Proc. Natl. Acad. Sci. USA, 2013, 110, 14741-14746), and T. equiperdum (see Stewart, M. L. et al., Eukaryot. Cell, 2010, 9, 336-343) were cultured in HMI-9 medium (Life Technologies, Paisley, United Kingdom) supplemented with 10% heat inactivated Foetal Bovine Serum (FBS (PAA Laboratories Linz, Austria)), 14 μL/L β-mercaptoethanol (BDH, Dorset, UK), and 3.0 g/L NaHCO3 (Sigma-Aldrich) and adjusted to pH 7.4. These cell lines were maintained at 37° C. in a humidified, 5% CO2 environment.
A resazurin-based (Alamar blue) drug sensitivity assay was used to assess and compare the activity of standard trypanocides in the different cell lines investigated (see Gould, M. K. et al., Anal. Biochem., 2008, 382, 87-93). Briefly, 23 doubling dilutions of the test compound of the invention, starting at 100 μM, and a compound-free control were prepared in 100 μL medium in a 96-well white plate (Greiner Bio-one, Frickenhausen, Germany). The cells were adjusted to 2×10^4 cells/mL for T. b. brucei and T. equiperdum; 4×10^4 cells/mL for T. evansi; and 5×10^5 cells/mL for T. congolense in the appropriate medium. 100 μL of the adjusted cells was then added to the wells containing drug dilutions and incubated for 48 h under respective culture condition. Thereafter, 20 μL of 125 mg/mL resazurin sodium dye was added, and the plate was incubated for a further 24 h. The resorufin fluorescence in each well of the plate was determined and used to calculate the Half maximal effective concentration (EC50) of the drug, as described in Carruthers, L. V. et al., Mol. Microbiol., 2021, 116, 564-588.

Test [3] deals with T. congolense IL3000 (a drug sensitive wild type). Described as above. The conditions noted are these: Trypanosoma congolense, read-out: IC50 T. congo.
Test [4] concerns T congolense 6C3 (a diminazene resistant strain). The test is described as above. The following applies: Trypanosoma congolense, read-out: IC50 T. congo C63.
Test [5] has as its system A. fumigatus TR34/L98H (F10017, an azole resistant strain). The conditions noted are these: Aspergillus fumigatus, read-out: MIC99 A. fumigatus TR34/L98H. As for the experimental part:
The Minimum Inhibitory Concentration (MIC, at 99% inhibition) of the compounds was determined using the broth microdilution method as recommended by EUCAST (EUCAST Definitive Document E.DEF 9.3.2, Method for the determination of broth dilution minimum inhibitory concentrations of antifungal agents for conidia forming moulds and EUCAST Definitive Document E.DEF 7.3.2 Method for the determination of broth dilution minimum inhibitory concentrations of antifungal agents for yeasts).

For the compound `Cn1cc(NC(=O)c2cc(NC(=O)c3ccc(/C=C/c4ccc5nonc5c4)cc3)c[nH]2)cc1C(=O)NCCN1CCOCC1` [IIIb9, (E)-4-(4-(4-(2-(benzo[c][1,2,5]oxadiazol-5-yl)vinyl)benzamido)-1H-pyrrole-2-carboxamido)-1-methyl-N-(2-morpholinoethyl)-1H-pyrrole-2-carboxamide], the IC50 (usually the concentration needed to halve the response being measured) in test [1] was below 50 nM; in test [2] it was 50 to 250 nM; in test [3] it was above 1000 nM; in test [4] it was above 1000 nM.

`Cn1cc(NC(=O)c2cc(NC(=O)c3ccc(/C=C/c4cnc5ccccc5c4)cc3)cn2C)cc1C(=O)NCCC1CCCCC1` [IVa3, (E)-N-(2-cyclohexylethyl)-1-methyl-4-(1-methyl-4-(4-(2-(quinolin-3-yl)vinyl)benzamido)-1H-pyrrole-2-carboxamido)-1H-pyrrole-2-carboxamide]: the “T.b. brucei Selectivity Indices (SI, IC50 (μM)/IC50 (μM)) Group” value (from here on “T.b. brucei Selectivity Indices”) in test [1] (Amides) is reported as “D (Group D: SI > 3)”. In addition, the IC50 in test [1] was 250 to 1000 nM; in test [2] it was 250 to 1000 nM; in test [3], above 1000 nM; in test [4], above 1000 nM. Also, the “T.b. brucei Selectivity Index (SI, IC50 (μM)/IC50 (μM)), numeric value” (shortened to “T.b. brucei Selectivity Index”) in test [1] came to 23.

As to `O=C(Nc1c[nH]c(C(=O)Nc2c[nH]c(C(=O)NCCN3CCOCC3)c2)c1)c1ccc(/C=C/c2ccc3nonc3c2)cc1` [IIIb6, (E)-4-(4-(2-(benzo[c][1,2,5]oxadiazol-5-yl)vinyl)benzamido)-N-(5-((2-morpholinoethyl)carbamoyl)-1H-pyrrol-3-yl)-1H-pyrrole-2-carboxamide], the “T.b. brucei Selectivity Indices” value in test [1] (Alkyl Amidines and NH Pyrroles) is reported as “D (Group D: SI > 300)”. Also, the IC50 in test [1] is 50 to 250 nM; in test [2], above 1000 nM; in test [3] it was above 1000 nM; in test [4] it was above 1000 nM. Moreover, the “T.b. brucei Selectivity Index” value in test [1] worked out at 366.

On to `Cn1cc(NC(=O)c2ccc(/C=C/c3ccc4nonc4c3)cc2)cc1C(=O)Nc1c[nH]c(C(=O)NCCN2CCOCC2)c1` [IIIb1, (E)-4-(4-(2-(benzo[c][1,2,5]oxadiazol-5-yl)vinyl)benzamido)-1-methyl-N-(5-((2-morpholinoethyl)carbamoyl)-1H-pyrrol-3-yl)-1H-pyrrole-2-carboxamide], for which the IC50 in test [1] is 250 to 1000 nM; in test [2], 50 to 250 nM; in test [3] it was above 1000 nM; in test [4], above 1000 nM.

On to `O=C(Nc1c[nH]c(C(=O)Nc2c[nH]c(C(=O)NCCN3CCOCC3)c2)c1)c1ccc(/C=C/c2cnc3ccccc3c2)cc1` [IIIb5, (E)-N-(2-morpholinoethyl)-4-(4-(4-(2-(quinolin-3-yl)vinyl)benzamido)-1H-pyrrole-2-carboxamido)-1H-pyrrole-2-carboxamide], for which the IC50 in test [1] is 50 to 250 nM; in test [2] it was 50 to 250 nM; in test [3], above 1000 nM; in test [4], above 1000 nM.

For `Cn1cc(NC(=O)c2cc(NC(=O)c3ccc(/C=C/c4cnc5ccccc5c4)cc3)cn2C)cc1C(N)=O` [IVa1, (E)-N-(5-carbamoyl-1-methyl-1H-pyrrol-3-yl)-1-methyl-4-(4-(2-(quinolin-3-yl)vinyl)benzamido)-1H-pyrrole-2-carboxamide], the “T.b. brucei Selectivity Indices” value in test [1] (Amides) is recorded as “B (Group B: 0.7 < SI <= 1.5)”. The IC50 in test [1] was 250 to 1000 nM; in test [2], 250 to 1000 nM; in test [3] it was above 1000 nM; in test [4], above 1000 nM.

As to `CNC(=O)c1cc(NC(=O)c2cc(NC(=O)c3ccc(/C=C/c4cnc5ccccc5c4)cc3)cn2C)cn1C` [IVa2, (E)-N,1-dimethyl-4-(1-methyl-4-(4-(2-(quinolin-3-yl)vinyl)benzamido)-1H-pyrrole-2-carboxamido)-1H-pyrrole-2-carboxamide], in test [1] (Amides), the “T.b. brucei Selectivity Indices” value is listed as “D (Group D: SI > 3)”. Besides, the IC50 was 250 to 1000 nM in test [1], 250 to 1000 nM in test [2], above 1000 nM in test [3] and above 1000 nM in test [4]. Besides, the “T.b. brucei Selectivity Index” value in test [1] is recorded as 5.

For the compound `Cn1cc(NC(=O)c2ccc(/C=C/c3cnc4ccccc4c3)cc2)cc1C(=O)Nc1c[nH]c(C(=O)NCCN2CCOCC2)c1` [IIIb4, (E)-1-methyl-N-(5-((2-morpholinoethyl)carbamoyl)-1H-pyrrol-3-yl)-4-(4-(2-(quinolin-3-yl)vinyl)benzamido)-1H-pyrrole-2-carboxamide], the IC50 is 50 to 250 nM in test [1], 50 to 250 nM in test [2], above 1000 nM in test [3] and above 1000 nM in test [4].

For `Cn1cc(NC(=O)c2cc(NC(=O)c3ccc(/C=C/c4cnc5ccccc5c4)cc3)c[nH]2)cc1C(=O)NCCN1CCOCC1` [IIIb8, (E)-1-methyl-N-(2-morpholinoethyl)-4-(4-(4-(2-(quinolin-3-yl)vinyl)benzamido)-1H-pyrrole-2-carboxamido)-1H-pyrrole-2-carboxamide], the half-maximal inhibitory concentration (IC50) in test [1] is below 50 nM; in test [2], below 50 nM; in test [3], 250 to 1000 nM; in test [4], 250 to 1000 nM.

On to `CN(C)c1ccc(/C=C/c2ccc(C(=O)Nc3c[nH]c(C(=O)Nc4cc(C(=O)NCCC(=N)N)n(C)c4)c3)cn2)cc1` [IIIa5, (E)-N-(5-((5-((3-amino-3-iminopropyl)carbamoyl)-1-methyl-1H-pyrrol-3-yl)carbamoyl)-1H-pyrrol-3-yl)-6-(4-(dimethylamino)styryl)nicotinamide], for which, in test [1] (Alkyl Amidines and NH Pyrroles), the “T.b. brucei Selectivity Indices” value is listed as “B (Group B: 70 < SI <= 150)”. In addition, the IC50 in test [1], in test [2] and in test [3] was 250 to 1000 nM throughout. In addition, the MIC99 in test [5] lay within 5 to 25 µg/mL (≈ 8.81 to 44 µM).

On to `COc1ccc(/C=C/c2ccc(C(=O)Nc3cc(C(=O)Nc4cc(C(=O)NCCC(=N)NC(C)C)n(C)c4)n(C)c3)cn2)cc1` [Ia15, (E)-N-(5-((5-((3-imino-3-(isopropylamino)propyl)carbamoyl)-1-methyl-1H-pyrrol-3-yl)carbamoyl)-1-methyl-1H-pyrrol-3-yl)-6-(4-methoxystyryl)nicotinamide], for which the “T.b. brucei Selectivity Indices” value in test [1] (Alkyl Amidines and NH Pyrroles) is given as “B (Group B: 70 < SI <= 150)”. Besides, the IC50 lay in the range of 250 to 1000 nM in test [1], 250 to 1000 nM in test [2], 50 to 250 nM in test [3] and 50 to 250 nM in test [4].

As for `Cn1cc(NC(=O)c2cc(NC(=O)c3ccc(/C=C/c4cnc5ccccc5c4)cc3)cn2C)cc1C(=O)NCCC(=N)N1CCCCC1` [Ib1, (E)-N-(3-imino-3-(piperidin-1-yl)propyl)-1-methyl-4-(1-methyl-4-(4-(2-(quinolin-3-yl)vinyl)benzamido)-1H-pyrrole-2-carboxamido)-1H-pyrrole-2-carboxamide], the “T.b. brucei Selectivity Indices” value in test [1] (Alkyl Amidines and NH Pyrroles) is “B (Group B: 70 < SI <= 150)”. For the same compound, the IC50 in test [1] and in test [3] was below 50 nM in each case. In test [5], the MIC99 is 5 to 25 µg/mL (≈ 7.61 to 38.1 µM).

For `CC(C)NC(=N)CCNC(=O)c1cc(NC(=O)c2cc(NC(=O)c3ccc(/C=C/c4cnc5ccccc5c4)cc3)cn2C)cn1C` [Ia21, (E)-N-(3-imino-3-(isopropylamino)propyl)-1-methyl-4-(1-methyl-4-(4-(2-(quinolin-3-yl)vinyl)benzamido)-1H-pyrrole-2-carboxamido)-1H-pyrrole-2-carboxamide], the “T.b. brucei Selectivity Indices” value in test [1] (Alkyl Amidines and NH Pyrroles) is reported as “D (Group D: SI > 300)”. In addition, in test [1], the IC50 is below 50 nM and the “T.b. brucei Selectivity Index” value stood at 472. Further, in test [5], the MIC99 fell in the range of 5 to 25 µg/mL (≈ 7.93 to 39.6 µM). The IC50 in test [3] lay in the range of 50 to 250 nM.

For the compound `CCCCCNC(=N)CCNC(=O)c1cc(NC(=O)c2cc(NC(=O)c3ccc(/C=C/c4cnc5ccccc5c4)cc3)cn2C)cn1C` [Ia35, (E)-N-(3-imino-3-(pentylamino)propyl)-1-methyl-4-(1-methyl-4-(4-(2-(quinolin-3-yl)vinyl)benzamido)-1H-pyrrole-2-carboxamido)-1H-pyrrole-2-carboxamide], the IC50 in test [1] and in test [3] was 50 to 250 nM throughout. The MIC99 in test [5] is above 50 µg/mL.
